Data as given in PubChem BioAssay AID1963576 (National Center for Advancing Translational Sciences (NCATS), 2024).
In all, about 46,000 compounds went through this assay and about 60 (0.1%) were called active. Not shown: some 3% with an inconclusive outcome. Calls come from the whole dose curve; as a rule, active = well fitted inhibition curve with a large enough effect; inconclusive = small, poorly fitted or top-dose-only effect; inactive = no such curve, though single readings can be large or run the other way. The list shows a part of the results.

Test: Primary qHTS assay for Inhibitors of ovarian cancer metastasis using an organotypic tumor microenvironment (TME) model.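 For activity change, negative = inhibition: plate controls were DMSO wells for no effect and tomatine positive control wells for full effect.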 Note: nearly all actives have a fitted effect of over 65% in size.
Conditions: SKOV3ip1-GFP adhesion/invasion on 3D omental model, fluorescence; series mostly up to 45.8 µM; activity change, negative = inhibition: at the top concentration
How it was run: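 Primary human omental fibroblast/mesothelial 3D culture pre-formed 48 h. SKOV3ip1-GFP cells added with compounds (0.36-46 umol/L), incubated 2 h RT/16 h 37 C, fixed; GFP cells quantified at 488/509 nm.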

Activity change, negative = inhibition, inactive:
CCOc1ccc(S(=O)(=O)N(C(C)=O)c2ccc3oc(C)c(C(=O)OC)c3c2)cc1 -20.2%
COc1cc(Cl)c(C)cc1NC(=O)c1nn(-c2ccc(C)cc2)c(=O)n(C)c1=O 2.84%
COc1ccccc1N1CCN(C(=O)c2cnn(C(C)(C)C)c2C2CCN(C(=O)OC(C)(C)C)CC2)CC1 -1.82%
CCCC(=O)Nc1cccc(-c2nc3ncccc3o2)c1 -8.73%
COc1ccc2oc(=O)c(C(=O)N3CCN(c4cc(Cl)ccc4Cl)CC3)cc2c1 1.6%
CCOC(=O)c1ccc(NC(=O)C(=O)NCCc2ccc(OC)cc2)cc1 -0.0558%
CN1CCN(C(=O)C(=O)Nc2c3c(nn2-c2cccc(Cl)c2)CSC3)CC1 2.69%
CCCCOC(=O)Cn1nnc2sc(-c3ccccc3)cc2c1=O -6.69%
O=C(CSc1ncc(-c2ccccc2)[nH]1)Nc1ccc(F)cc1F 2.76%
COc1ccc(Nc2cc(C(=O)NCc3cccs3)c3ccccc3n2)cc1 0.191%
CCOc1ccc(C2=C(C(=O)CC)Sc3nncn3N2C(=O)CC)cc1 -19.2%
COC(=O)c1c(SC)nc2ccccc2c1OCc1ccc(C)cc1 2.99%
CCc1ccccc1N1C(=O)N(CC(=O)c2ccc(Cl)cc2)c2ccccc2S1(=O)=O 1.77%
Cc1ccc(Cn2c(=O)n(CCc3ccccc3)c(=O)c3c(C)c(C)sc32)cc1 -3.23%
CCOC(=O)c1c(C)[nH]c(C)c1S(=O)(=O)N1CCCC(C(=O)NCc2ccc(C)cc2)C1 (stereo not drawn) 16.6%
Clc1ccc(C(Cn2ccnc2)OCc2ccsc2Cl)c(Cl)c1 (stereo not drawn) -5.3%
COc1cc(C(=O)N2CCC(N3CCN(C)CC3)CC2)ccc1Nc1ncc2c(n1)N(C)c1ccccc1C(=O)N2C 10.8%
CCCCn1cc(S(=O)(=O)c2ccc(Cl)cc2)c(=O)c2cc(F)c(N3CCCC(C)C3)cc21 (stereo not drawn) -6.62%
CCOC(=O)c1cc(S(=O)(=O)N2CCN(c3cccc(OC)c3)CC2)[nH]n1 1.75%
CCOC(=O)Cn1c(=O)oc2cc(S(=O)(=O)N3CCCC(C)C3)ccc21 (stereo not drawn) 14%
CCc1cnc2c(c1SCC(=O)Nc1ccc(OC)c(OC)c1)c(=O)n(C)c(=O)n2C 2.78%
CC1CCCN(C(=O)CCS(=O)(=O)c2cc3c(cc2Cl)NC(=O)CO3)C1 (stereo not drawn) 60.1%
CCOc1ccc(CNC(=O)Cn2cc3c(n2)-c2c(oc(C(=O)N4CCCC4)c2C)CC3)cc1 -2.45%
CC(=O)N1c2c(cc(Br)cc2S(=O)(=O)Nc2ccc(OC(F)(F)F)cc2)CC1C (stereo not drawn) 14.8%
COc1ccc(NC(=O)NCc2c(-n3cccc3)sc3c2CCCC3)c(OC)c1 1.51%
COc1ccccc1CN(Cc1ccco1)c1cnc(S(C)(=O)=O)nc1C(=O)Nc1ccccc1Cl -1.04%
CCOc1ccc(CCNC(=O)CCCc2nnc3n(C)c(=O)c4sccc4n23)cc1OCC 2.87%
CCOC(=O)c1noc2ncn(Cc3cccc(C#N)c3)c(=O)c12 -3.45%
Cc1cc(Cl)ccc1NC(=O)CN1C(=O)COc2ccc(S(=O)(=O)N3CCC(C)CC3)cc21 -25.8%
O=C(CCCn1c(=O)[nH]c2ccsc2c1=O)N1CCN(c2cccc(C(F)(F)F)c2)CC1 17.5%
CCOC(=O)Cc1ccc(NC(=O)N(C(C)C)C2CCN(C(C)=O)CC2)cc1 -7.61%
COc1ccc(NCc2cc3cc4c(cc3n(CC(=O)Nc3ccccc3)c2=O)OCO4)cc1 3.94%
Cc1ccc(-c2cc(C(=O)Nc3c(C(=O)c4ccc(C)c(F)c4)oc4ccccc34)no2)cc1 4.78%
CCOCCc1nn2c(=O)cc(COC(=O)c3cccc(C)c3)nc2s1 -9.85%
Cc1ccc(Cn2c(CN3CCC(C(=O)NCC(C)c4ccccc4)CC3)cc3ccccc32)cc1 (stereo not drawn) -5.01%
C[C@](N)(Cc1ccc(O)c(O)c1)C(=O)O -0.559%
CCN(CC)CCOC(=O)c1ccc(NC(=O)c2cc3cccc(OC)c3oc2=O)cc1 -2.18%
COc1ccc(Cl)cc1NC(=O)Cn1nnc(C(=O)NCc2ccc3c(c2)OCO3)c1N -4.22%
COC(=O)c1sccc1S(=O)(=O)N1CCN(c2ccc(C(C)=O)cc2)CC1 0.627%
Cn1c(=O)c2c(n3c4ccccc4nc13)NC(=O)CC2c1cccc(Cl)c1 (stereo not drawn) -3.87%
CC(=O)c1ccc(NC(=O)c2cc(C3CC3)nc3c2c(C)nn3-c2ccc(C)cc2)cc1 -32.6%
COc1ccc(S(=O)(=O)NCCc2sc(-c3ccccc3)nc2C)cc1F 13.7%
COc1ccc(NC(=O)CN2CCN(c3ccccc3F)CC2)c(OC)c1 3.98%
CCCOc1ccc(-c2cccc(NS(=O)(=O)c3ccc(CC)cc3)c2)nn1 1.39%
COc1cc2c(C(=O)N3CCN(c4cc(Cl)ccc4C)CC3)cn(CC(C)C)c(=O)c2cc1OC -9.23%
COc1ccc(S(=O)(=O)NCCc2sc(-c3cccc(F)c3)nc2C)cc1 -8.13%
O=C(Cn1cc(S(=O)(=O)N2CCN(c3ccccc3F)CC2)c2ccccc2c1=O)Nc1ccc(F)cc1Cl 37.8%
O=C(Nc1ccccc1F)C(Cc1ccccc1)N1Cc2ccccc2C1=O (stereo not drawn) -1.03%
CC(C)c1ccc(NC(=O)c2ccc(F)c(S(=O)(=O)N3CCN(c4ccccc4F)CC3)c2)cc1 -18.8%
COc1ccc(C(=O)N2CCN(C(=O)COc3ccc(C)cc3)CC2)cc1OC -9.81%
O=C(Nc1ccc(F)cc1F)N1CCc2c(sc3c2CCCC3)C1c1ccc(F)cc1 (stereo not drawn) 1.18%
CCc1ccc(S(=O)(=O)n2ccnc2)cc1 1.43%
COc1cc(NS(=O)(=O)c2ccc(NC(=O)c3ccc(OC)c(Br)c3)cc2)nc(OC)n1 -0.314%
CCCSCCCNC(=O)CN1C(=O)CCn2nc(-c3cn(C)c4ccccc34)cc21 6.91%
Cc1ccc(NC(=O)CSc2nccn2Cc2ccc3c(c2)OCO3)c(C)c1 7.81%
CCc1cccc(NC(=O)C(Cc2ccccc2)NS(=O)(=O)c2ccc3c(c2)c(=O)n(C)c(=O)n3C)c1 (stereo not drawn) -8.83%
COc1ccc(-c2nc3sc(CCNS(=O)(=O)c4c(C)cc(C)cc4C)c(C)n3n2)cc1 -10.8%
COc1ccc(OCc2nc(C#N)c(NCc3ccccc3Cl)o2)cc1 16.5%
COc1cccc(NC(=O)C2CCCN2S(=O)(=O)c2ccc3nc(-c4ccccc4)[nH]c3c2)c1 (stereo not drawn) 1.31%
N[C@H]1CN(c2c(F)cc3c(=O)c(C(=O)O)cn(C4C[C@@H]4F)c3c2Cl)CC12CC2 (stereo partly drawn) -13%
COc1cccc(N2CCN(C(=O)c3c4c(nc5ccccc35)C(=O)N(C3CCCCC3)C4)CC2)c1 -14.8%
CCC(C(=O)Nc1cc(C)ccc1OC)n1nnc(C(=O)OC)c1C(=O)OC (stereo not drawn) 6.16%
CCOc1ccc(C2c3c(oc4cc(C)c(C)cc4c3=O)C(=O)N2c2ccccn2)cc1 (stereo not drawn) 2.3%
CCc1ccc(S(=O)(=O)N(C(C)=O)c2ccc3oc4c(c3c2)CCCC4)cc1 -4.8%
CCOc1ccc(C(=O)Nc2ccc3c(c2)N(C(C)=O)CCC3)cc1OCC -5.43%
COc1ccccc1N1CCN(S(=O)(=O)c2ccc(-n3cnnn3)cc2)CC1 -2.01%
CC(=O)Nc1cccc(NC(=O)Cc2csc(COc3cccc(C)c3)n2)c1 2.25%
COc1ccccc1CNC(=O)CCC(=O)N1Cc2ccccc2Oc2ncccc21 -6.22%
CN(C)c1ccc(CN(Cc2ccco2)C(=O)c2ccc(F)cc2)cc1 -7.88%
Cc1ccc(C)c(S(=O)(=O)n2nc(C)c(S(=O)(=O)N3CCC(C)CC3)c2C)c1 59.3%
Cc1ccc(-n2nc3c(N4CCC(C(=O)N(C)Cc5ccccc5)CC4)nnc(C)c3c2C)cc1 5.23%
CC(=O)N1c2ccc(S(=O)(=O)NCC3CCC(C(=O)Nc4cc(C)cc(C)c4)CC3)cc2CC1C (stereo not drawn) 6.27%
CC(C)(C)OC(=O)N1CCC(c2c(C(=O)N3CCOCC3)cnn2-c2ccccc2Cl)CC1 4.45%

outcome, inactive:
COc1ccc(CCNC(=O)CSc2cn(CCNC(=O)c3ccccc3F)c3ccccc23)cc1OC
O=C(CCCCn1c(=O)c2ccccc2n(CC(=O)Nc2ccc(F)cc2F)c1=O)NCc1ccccc1Cl
O=C(NCc1ccc(Cl)cc1)c1ccc2oc(=O)n(Cc3ccccc3)c2c1
COc1cccc(CNC(=O)Cn2nc3c(cc2=O)CCCC3)c1OC
CCCC1=Nc2cc(C(=O)NCC(C)c3ccccc3)ccc2Sc2ccccc21 (stereo not drawn)
COc1ccc(OCC(=O)Nc2nc(-c3ccc(Br)cc3)ns2)cc1
CCc1cccc(C)c1NC(=O)NC1COc2ccccc2C1 (stereo not drawn)
CCNc1nc(NC(C)CC)nc(Oc2ccc(OCC)nn2)n1 (stereo not drawn)
Cc1c(C(=O)OC2CCC(C)CC2)[nH]c2c1C(=O)CC(c1ccccc1Cl)C2 (stereo not drawn)
O=C(Nc1ccc(Cl)cc1)c1cc(S(=O)(=O)N2CCCc3ccccc32)ccc1F
CCOC(=O)c1c(NC(=O)CSc2cn(CCNC(=O)c3c(F)cccc3F)c3ccccc23)sc2c1CCCC2
Cc1ccc(Cl)cc1N1CCN(S(=O)(=O)c2ccc(-c3cnc(C4CC4)o3)cc2)CC1
CC(C)c1ccc(NC(=O)CN2C(=O)CCc3cc(S(=O)(=O)N4CCOCC4)ccc32)cc1
COCCn1c(=NC(=O)c2ccc3c(c2)OCCO3)sc2cc(NC(C)=O)ccc21
Cc1ccc(-c2nn3c(=O)cc(CN4CCN(C(=O)c5ccc(C(C)(C)C)cc5)CC4)nc3s2)cc1
CCC(C)NC(=O)CCC(=O)NNc1nc2ccccc2c2nc(C)nn12 (stereo not drawn)
Cc1cc(C)c(NC(=O)CN(C)S(=O)(=O)c2ccc3c(c2)c(=O)n(C)c(=O)n3C)c(C)c1
COc1cc(Cl)c(C)cc1Nc1nnc(-n2nc(C)cc2C)c2ccccc12
COc1ccc(NS(=O)(=O)c2ccc3c(c2)NC(=O)CCS3)c(OC)c1
CCOC(=O)N1CCc2c(sc3c2c(=O)n(-c2ccc(CC)cc2)c(=O)n3Cc2cccc(OC)c2)C1
